Reference: PubChem BioAssay AID686979 (National Center for Advancing Translational Sciences (NCATS), 2013)
“And” between values parts separate entries of the source, which are not always exact repeats. Equal values may be shown once. The campaign covered roughly 420,000 compounds. About 50,000 (12%) were called active. Inconclusive results, whose numbers are uncertain, are shown with a selection of clear calls. Calls come from the whole dose curve; as a rule, active = well fitted inhibition curve with a large enough effect; inconclusive = small, poorly fitted or top-dose-only effect; inactive = flat fitted curve, though single readings scatter. Potencies beside an inconclusive call are fits to weak or partial responses and may not hold up.

Assay: qHTS for Inhibitors of human tyrosyl-DNA phosphodiesterase 1 (TDP1): qHTS in cells in presence of CPT; note: nearly all actives have a fitted effect of over 55% in size
Settings: chicken DT40 Tdp1-/-;hTDP1 cells + 20 nM CPT, ATP luminescence, 48 h; activity change, negative = growth inhibition: at 46.2 µM (top of the series) unless noted
Method in brief: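 Chicken DT40 Tdp1-/- cells complemented with human TDP1, 400 cells/well, exposed to compounds plus 20 nM camptothecin for at least 48 h at 37 C; viability read as ATP content by CellTiter-Glo luminescence.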
% is set by controls: 0 for no effect and ±100 for the full control effect; potency is the fitted concentration of half-maximal effect; tags give direction and shape of the fitted curve.

SMILES | Potency | activity change, negative = growth inhibition
Cc1ccc(NC(=O)CN(C)C(=O)Cc2ccc3c(c2)CCC3)cc1 | inconclusive: 29.1 µM [inhibitor, single point] | 
Cc1cc(C)n2nc(CC(=O)NC3CCCC(C)C3C)nc2n1 (configuration not stated) | inactive | 
COc1cccc(OC)c1C(=O)NC(=S)Nc1ccc2c(c1)C(=O)N(C)C2=O | inconclusive: 9.2 µM [inhibitor, partial curve] | 
COc1ccc(Cl)cc1NC(=O)CN(C)C(=O)CCCc1c[nH]c2ccccc12 | inconclusive: 29.1 µM [inhibitor, single point] | 
Clc1cccc(CN2CCc3c([nH]c4ccccc34)C2)c1Cl | inconclusive: 29.1 µM [inhibitor, single point] | 
C[C@@H](OC(=O)c1[nH]cnc1C(=O)N1CCN(C(=O)OC(C)(C)C)CC1)c1ccccc1 | inconclusive: 29.1 µM [inhibitor, single point] | 
Cc1ccccc1N1C(=O)C2ON(c3ccccc3)C(c3ccco3)C2C1=O (configuration not stated) | inactive | 
O=C(NCc1ccccc1)c1cc(C2COCCN2C(=O)C2CC2)on1 (configuration not stated) | inactive | 
CCN(CC)c1nc2c(c(=O)n(C)c(=O)n2C)n1CC(=O)c1ccccc1 | inconclusive: 20.6 µM [inhibitor, partial curve] | 
COc1ccccc1N(C)S(=O)(=O)c1ccc(C(=O)Nc2nccs2)cc1 | inconclusive: 29.1 µM [inhibitor, single point] | 
CSc1nc2ccc(NC(=O)c3nn(C(C)C)c(=O)c4ccccc34)cc2s1 | active: 18.4 µM | 
CCN=c1scc(-c2ccc3c(c2)NC(=O)CO3)n1N=C1CCCC1 | inconclusive: 29.1 µM [inhibitor, single point] and inconclusive: 16.4 µM [inhibitor, single point] | 
O=C(NC(=S)Nc1cccc2cc(O)ccc12)c1ccccc1Br | inconclusive: 16.4 µM [inhibitor, single point] | 
CCNc1c(NC(=O)C2CCC(C)CC2)c(=O)oc2ccccc12 (configuration not stated) | inconclusive: 18.4 µM [inhibitor, single point] | 
Oc1ccc(-c2cnns2)c(O)c1 | active: 4.11 µM | 
CC1CCN(Cc2ccc(-c3nnn(CC(=O)NC4CCCCC4)n3)cc2)CC1 | inactive | 
CC1=C(NCCc2ccccc2)CCC1=O | active: 20.6 µM | 
Cc1c(Cl)cccc1NC(=O)COC(=O)Cc1ccsc1 | inactive | 
CC(C)CN(CCCNC(=O)Cn1ncc2c3ccccc3n(C)c2c1=O)CC(C)C | inactive | 
O=C(CN1c2ccccc2Sc2ccccc21)NNC(=O)Nc1ccc(Cl)cc1 | inconclusive: 29.1 µM [inhibitor, single point] | 
Nc1nc2c([nH]c(=S)n2C2OC(CO)C(O)C2O)c(=O)[nH]1 (configuration not stated) | inactive | 
CCN1C(=O)[C@H]2[C@@H](c3ccc(-c4ccc(F)cc4)cc3)N[C@@](C)(C(=O)OC)[C@H]2C1=O | active: 23.1 µM | 
CCCCCOc1ccc(NC2=CC(=O)CCC2)cc1 | inconclusive: 0.0073 µM [inhibitor, full curve, poor fit] | 
CCC(=O)c1ccc(N2CCN(C(=O)c3ccccc3F)CC2)c(F)c1 | active: 10.3 µM | 

SMILES | Potency | activity change, negative = growth inhibition
CCOc1ccc2[nH]c3c(c2c1)CNCC3 | inconclusive: 20.6 µM [inhibitor, single point] | 
Cc1ccc(OCC(=O)N/N=C/C=C/c2ccco2)c(Br)c1 | active: 18.4 µM | 
Cc1ccc2c(c1)C(C)CC(C)(C)N2C(=O)CN1CCN(C)CC1 (configuration not stated) | inconclusive: 18.4 µM [inhibitor, single point] | 
Cc1nc2ccc(C(=O)N3CCc4c(cnc(C)c4CNC(=O)/C=C/c4cccs4)C3)cc2nc1C |  | inactive: 16.5% [at 9.04 µM]
COC(=O)[C@]12CCCCC=C1N(Cc1ccc(Cl)cc1Cl)C(=O)[C@H](CC(=O)NCc1ccccc1)C2 | inconclusive: 29.1 µM [inhibitor, single point] | 
COc1ccc(Cl)cc1NC(=O)CCS(=O)(=O)c1nc(-c2cccs2)cc(C(F)(F)F)n1 | active: 4.61 µM | 
Cc1oc2c(cc(NS(=O)(=O)c3ccc(Cl)cc3)c3ccccc32)c1C(=O)O | inconclusive: 16.4 µM [inhibitor, single point] | 
Cc1nc(CNC(=O)C2CCC(=O)N(Cc3cccc(F)c3)C2)sc1C (configuration not stated) | inactive | 
Cc1c(Cl)cccc1NC(=O)CN1CCN(CCN=CC2=C(O)CC(c3ccccc3)CC2=O)CC1 (configuration not stated) | inactive | 
CCOC(=O)c1cc(-c2ccccc2)n(CC(=O)NC(C)c2ccccc2)c1C (configuration not stated) | active: 18.4 µM | 
CC(C)(C)C1=C(C#N)C(c2ccc3c(c2)OCO3)C(C#N)=C(N)O1 (configuration not stated) |  | inconclusive: -34.4% [inhibitor]
Cc1ccc(CNC(=O)c2cc3c(s2)-c2ccccc2SC3)cc1 | inactive | 
CC(C)COc1ccc(C(=O)Nc2cccc(-c3nc4ccccc4[nH]3)c2)cc1 | active: 18.4 µM | 
CCOC(=O)c1cnc(Nc2nc3ccccc3o2)nc1CSC(=S)N(CC)CC | active: 0.146 µM | 
c1ccc(CSc2nnc(-c3cccs3)n2Cc2ccco2)cc1 | inconclusive: 29.1 µM [inhibitor, single point] | 
Cc1cnc(C)c(-c2cc(F)cc3c2OC(CNC(=O)CN2CCCC2)C3)n1 (configuration not stated) | inactive | 
CCc1ccc(OC(C)C(=O)N2CCC(c3nc4ccccc4s3)CC2)cc1 (configuration not stated) | active: 18.4 µM | 
CCCn1nc(CC(=O)OCC)c2ccccc2c1=O | inactive | 
C=CCn1c(-c2sccc2C)n[nH]c1=S | inconclusive: 29.1 µM [inhibitor, single point] | 
COc1ccc(CN2CCC[C@]3(N[C@H](c4ccc(OC)cc4)[C@@H]4C(=O)N(Cc5ccccc5)C(=O)[C@@H]43)C2=O)cc1 | active: 20.6 µM | 
CSc1ncccc1C(=O)N1CCCC(C(=O)c2cc(F)ccc2F)C1 (configuration not stated) | inconclusive: 29.1 µM [inhibitor, single point] | 
COc1ccc(NC(=O)C2CC(=O)N(CCc3ccc(Cl)cc3)C2)cc1 (configuration not stated) | inconclusive: 18.4 µM [inhibitor, single point] | 
COc1ccc(NS(=O)(=O)c2ccc(OCC(=O)N3CCOCC3)cc2)cc1Cl | inconclusive: 11.6 µM [inhibitor, partial curve] | 
O=C(NCc1ccccc1CN1CCCC1)c1ccc(S(=O)(=O)Nc2ccccc2)cc1 | active: 20.6 µM | 

SMILES | Potency | activity change, negative = growth inhibition
Cc1coc2cc3oc(=O)c(CCC(=O)NC4CC4)c(C)c3cc12 | active: 16.4 µM | 
CN1CCN(NC(=O)c2cn(-c3ccccc3)nc2-c2cccc(Br)c2)CC1 | inconclusive: 23.1 µM [inhibitor, single point] | 
O=C(/C=C/c1ccc(F)cc1)N1CC[C@@]2(O)CCCC[C@H]2C1 | inactive | 
CCn1cc(C(=O)N2CCN(c3cccc(C(F)(F)F)c3)CC2)c2cc(OC)c(OC)cc2c1=O | active: 18.4 µM | 
COC(=O)c1ccc(NC(=O)N2CCCC(C(=O)c3ccccc3OC)C2)cc1 (configuration not stated) | inconclusive: 16.4 µM [inhibitor, single point] | 
Cc1ccc(Nc2c([N+](=O)[O-])ccc3c2=NC2(CCCCC2)N=3)cc1 | active: 16.4 µM | 
Cc1ccnc(N2CCN(c3cc(C)c(C#N)c4nc5ccccc5n34)CC2)c1 | inconclusive: 18.4 µM [inhibitor, single point] | 
Cc1ccc(C(=O)N/C(=C\c2ccc(F)cc2)C(=O)NCCN2CCOCC2)cc1 | inactive | 
CCn1c(C)cc(C(=O)CSc2nnc(C3CC3)n2C2CC2)c1C | inconclusive: 23.1 µM [inhibitor, single point] | 
CN(c1ccc(C(=O)NCCSCc2ccc(Cl)cc2)cc1)S(=O)(=O)c1ccccc1 | active: 16.4 µM | 
CC1=CCC2C(=O)N(c3ccc(S(N)(=O)=O)cc3)C(=O)C2C1 (configuration not stated) | inactive | 
COc1ccc(C(=O)NC(CCSC)C(=O)NCc2nnc3ccccn23)cc1 (configuration not stated) | inconclusive: 6.51 µM [inhibitor, single point] | 
O=C(NCC(=O)N(c1ccccc1F)C(C(=O)NC1CCCC1)c1cccnc1)c1ccco1 (configuration not stated) | inactive | 
COc1ccc(CCC(=O)N2c3ccccc3N=C(c3ccc(C(F)(F)F)cc3)C2C(=O)NC(C)(C)C)cc1 (configuration not stated) | inconclusive: 18.4 µM [inhibitor, single point] | 
COc1ccc(OC)c(N(C)S(=O)(=O)c2cc3c(cc2C)NC(=O)CO3)c1 | inconclusive: 18.4 µM [inhibitor, single point] | 
COc1ccc(CCNC(=O)c2cc(C)oc2C)cc1 | inactive | 
Oc1ccc(/C=N/NC(=S)Nc2cccnc2)c(O)c1 | inconclusive: 9.2 µM [inhibitor, partial curve, poor fit] | 
COc1ccc(NC(=O)CSc2nc3ccccc3nc2N2CCCC2)cc1 | inconclusive: 16.4 µM [inhibitor, single point] | 
O=C(NCc1ccc(F)cc1)c1cccc2c1C(=O)c1ccc(N3CCOCC3)cc1S2(=O)=O | active: 23.1 µM | 
O=c1cc(COn2nnc3ccc(C(F)(F)F)cc32)nc2sccn12 | inactive | 
CC(C)C(=O)N1CCN(c2ccccc2NC(=S)NC(=O)Cc2ccccc2)CC1 | inconclusive: 32.6 µM [inhibitor, single point] | 
COc1ccc(/C=N/n2c(N)nc(-c3ccccc3)c2-c2ccccc2)cc1 | active: 25.9 µM | 
CCCCn1c(N)c(N(CC(C)C)C(=O)c2ccc(Cl)c(S(=O)(=O)N3CCCC3)c2)c(=O)[nH]c1=O | inconclusive: 32.6 µM [inhibitor, partial curve, poor fit] | 
CCOCCOC(=O)c1[nH]c2c(c1C)C(=O)CC(c1cc(OC)c(OC)c(OC)c1)C2 (configuration not stated) | active: 10.3 µM | 
